The other results are listed elsewhere or left out.

The subject of the assay is PF3D7_0420300 AP2 domain 1 (GST-tagged). As to the kind of experiment: gcPBM binding intensity (ln(normalized median fluorescence intensity)); higher = stronger DNA binding. The method, boiled down: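 An Agilent 4 × 180k array of primer-extended double-stranded 36-bp intergenic genomic probes, with negative controls, was incubated for 1 h with GST-tagged P. falciparum DNA-binding domains expressed in E. coli. Alexa488 anti-GST antibody detected bound protein, scanned at 488 nm. Binding intensity is the highest Masliner-normalised natural-log median intensity across replicate spots of either probe orientation.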
As for “ATTCCTCATTAATATTCTTATTTTTTAATTCACATT [XGTACX_negctrl_site329]”, the “gcPBM binding intensity (ln)” value came to 9.37.
As to “TAAAAGGAGACATATACACACATATATATATATATA [CACACA_site5539]”, the “gcPBM binding intensity (ln)” value turned out to be 9.28.
“TTTATTTAAAATAAGTGTACTAGAAAAATTAAGCAG [XGTACX_site4982]”: the “gcPBM binding intensity (ln)” value was determined as 9.07.
Then “TGTGATTATGATAAAAGTACAGAAATAAATATACTA [XGTACX_site38]”, with 9.23.
Then ATAAAAAGCTAAAAAGTGCAAAAAGTAAATATTTAA, with 9.5; and “TTTTATAAAGAACACAGACACACAAAGAAAGAACCA [CACACA_site4174]”, with 9.88; and “TATATATACTTAGAAACACACAAAAATATTTTATAA [CACACA_site2578]”, with 9.37.
Then “TAATTAGTTTTTACTTTTTTTTTTTTTTTTCTATAT [CACACA_negctrl_site1024]”, with 9.17.
For “ATAATCCTGAAACACACACACACACCCATAAATAAA [CACACA_site481]”, the “gcPBM binding intensity (ln)” value stood at 10.1.
The figure for “TTATGTATATTATAAATTAATACCTTTAAATTAATA [CACACA_negctrl_site67]” is 8.73.
Take “TATAACTTATTTTTTAGTACATATTATAGTTCATTT [XGTACX_site8649]”: the “gcPBM binding intensity (ln)” value was determined as 9.23.
Then “CTTTCCCTATATTGCTGTACATGTATTCAAAAAACA [XGTACX_site353]”, with 9.21; and “CGCGAACATACATACACACACATATATATATCTGTA [CACACA_site4277]”, with 9.85; and “AACATTAATTTCCTATGTACTTAATATATTGTTTTT [XGTACX_site4440]”, with 9.47.
Then “AACACCCAAAAACACACACACATACATACATACATA [CACACA_site4411]”, with 9.98; and “ATTTATATATATGTATGTACGTATGTGTGTATATGT [XGTACX_site7587]”, with 9.71; and “ACCAATTTGACAAACTGTACAAAAAAAATATTAAAA [XGTACX_site1186]”, with 9.04.
Take “TACACAAAAATAAACACACACACATATATATATATA [CACACA_site1000]”: the “gcPBM binding intensity (ln)” value is 9.78.
“TATATATTCCTCCATAGTACAATAATAAAGATAAAA [XGTACX_site5785]”: the “gcPBM binding intensity (ln)” value is 9.12.
On to “TTTTTTTTTTTTTTTTTTATATTTCATAATTTCATT [XGTACX_negctrl_site579]”, for which the “gcPBM binding intensity (ln)” value was 8.76.
Then “TTTATATTTCATTTGTTATTTTTCTTGGTTCTATAT [TGCATGCA_negctrl_site23]”, with 9.73; and “TTTTGCCTGAACAATGCATGTTATTTTTATTTTTTT [TGCATGCA_site673]”, with 9.44.
For “TCATTTAAGTCATATTGAAATATGCATTATTCAAAA [CACACA_negctrl_site958]”, the “gcPBM binding intensity (ln)” value amounted to 8.87.
Then “ATCACTAATTTTTTTACACACCACAATTTAATTTTT [CACACA_site1186]”, with 9.68; and “AAATGTGTTAATGTGCGTACACATATATATAATATT [XGTACX_site2792]”, with 9.36.
The figure for “AATATATACACATGCGCACACACAAGTGGGAAATTT [CACACA_site8527]” is 9.73.
As for “ATATGTACTATACGCACACACACTCACATATTTATA [CACACA_site7510]”, the “gcPBM binding intensity (ln)” value was determined as 10.
On to “TTTATTTATATAATTACACACATATATACTCAAATG [CACACA_site5543]”, for which the “gcPBM binding intensity (ln)” value stood at 9.45.
As for “TTCTTAATTCATACCATCAAAACATTTATTCATATC [CACACA_negctrl_site43]”, the “gcPBM binding intensity (ln)” value is 9.06.
Regarding “ATAGGGTTTCTACTTTAACATTTTTGAAATATTATA [GTGCAC_negctrl_site260]”, the “gcPBM binding intensity (ln)” value was 9.13.
On to “ATAATAAATACACTAGTGCAAAATAATATATGTACT [GTGCAC_site9707]”, for which the “gcPBM binding intensity (ln)” value came to 9.49.
Take “TATTTAGACATAACAAATAGACTAACAAAAGATTTA [GTGCAC_negctrl_site614]”: the “gcPBM binding intensity (ln)” value was found to be 9.09.
“TATTATAAATAAATAGAAAAAAAAATGATAAATGGA [CACACA_negctrl_site865]”: the “gcPBM binding intensity (ln)” value worked out at 9.37.
The figure for “AATATACGATTGTCATTCATACATTGTTAACATAGT [CACACA_negctrl_site1151]” is 9.22; for “ATATACAGAAAAAATTAAAATAAATATGCAAAACAA [CACACA_negctrl_site704]” it is 9.53; for “ACATAGTAAATATTATGTACATAATATATACATTTA [XGTACX_site7500]” it is 9.24.
On to “TACAATGAACATGAAACACACAAAAAAAAAAAAAAA [CACACA_site1544]”, for which the “gcPBM binding intensity (ln)” value came out at 9.26.
On to “TACATATATATAATATATATATCATCATATTTTCTT [XGTACX_negctrl_site478]”, for which the “gcPBM binding intensity (ln)” value came to 9.05.
The figure for “CTTAAACTTTTAAATACACACATACAGACATACACA [CACACA_site6401]” is 9.86; for “TAAAAATGATCAAAGGGTACAGTATTAATTAAAAAA [XGTACX_site1079]” it is 9.28.
Then “TTTACTTTTTTTATATATTATTTATTATATAATATA [CACACA_negctrl_site211]”, with 9.2; and “CGGGGGTAGTTTTATGCACACGTTTATTAATGCTTC [CACACA_site5717]”, with 9.61; and TGAAAAACTATCAGAGTGCATATATAGCTCGATACA, with 9.22.
The figure for “ACCAATAATATACATACACACATAAATGTTTATATA [CACACA_site4328]” is 9.59; for “ACATGAATATATACACGTACATATATACATATATAT [XGTACX_site5872]” it is 9.34.
Regarding “TAAAATAATATATGGTGTACACAAAAGTATAAATAA [XGTACX_site4991]”, the “gcPBM binding intensity (ln)” value amounted to 9.46.
The figure for “TATATATATATATTATGTACTCATTTATTATCTTTT [XGTACX_site8051]” is 9.36.
The figure for “AAAAAAATAATTAACACACACATGTATATCTATATA [CACACA_site3139]” is 9.69; for “ATATAAAAAAAATTTAGTACATATATATATATATAT [XGTACX_site8635]” it is 8.89.
On to “ATTACCATATTTTGTACACACATCTTTATCTCAATA [CACACA_site3217]”, for which the “gcPBM binding intensity (ln)” value came out at 9.76.
In the case of “TAAAAATTAAAGTGTACACATATATATATATATATA [CACACA_site4781]”, the “gcPBM binding intensity (ln)” value came to 9.2.
Take “TATAAACCGACGAAAACACACATATGTAAATATATA [CACACA_site491]”: the “gcPBM binding intensity (ln)” value was 9.69.
Consider “TTTTATGTTTATGTGGTGCATGTTTTGAAGAAAATA [GTGCAC_site9616]”, for which the “gcPBM binding intensity (ln)” value came out at 9.22.
The figure for “AAACCTATGTATATTATACACACTCCAAACTATTAT [CACACA_site8536]” is 9.54; for “AAAAACAAAATTTGGAGTACAGTTATAATATTATTA [XGTACX_site5245]” it is 9.29; for “TTATAAAGAAAAAATTGCTTTAAAAGAAAGATTACA [CACACA_negctrl_site960]” it is 8.68.

The values above are taken from the supplement of paper PMC11417369.
